# Data published in publication PMC4336329 (PLoS ONE, 2015).
# The campaign covered roughly 310,000 compounds. About 2,200 (0.71%) showed an effect of 50% or more. Effects have a minus sign here. The list shows a part of the results.
# Biological target: human ether-à-go-go-related gene (hERG) potassium channel (human, UniProt Q12809)
# Assay: primary screen, population patch clamp on CHO cells stably expressing hERG
# human ether-à-go-go-related gene (hERG) potassium channel, sequence (Q12809 whole entry, looked up): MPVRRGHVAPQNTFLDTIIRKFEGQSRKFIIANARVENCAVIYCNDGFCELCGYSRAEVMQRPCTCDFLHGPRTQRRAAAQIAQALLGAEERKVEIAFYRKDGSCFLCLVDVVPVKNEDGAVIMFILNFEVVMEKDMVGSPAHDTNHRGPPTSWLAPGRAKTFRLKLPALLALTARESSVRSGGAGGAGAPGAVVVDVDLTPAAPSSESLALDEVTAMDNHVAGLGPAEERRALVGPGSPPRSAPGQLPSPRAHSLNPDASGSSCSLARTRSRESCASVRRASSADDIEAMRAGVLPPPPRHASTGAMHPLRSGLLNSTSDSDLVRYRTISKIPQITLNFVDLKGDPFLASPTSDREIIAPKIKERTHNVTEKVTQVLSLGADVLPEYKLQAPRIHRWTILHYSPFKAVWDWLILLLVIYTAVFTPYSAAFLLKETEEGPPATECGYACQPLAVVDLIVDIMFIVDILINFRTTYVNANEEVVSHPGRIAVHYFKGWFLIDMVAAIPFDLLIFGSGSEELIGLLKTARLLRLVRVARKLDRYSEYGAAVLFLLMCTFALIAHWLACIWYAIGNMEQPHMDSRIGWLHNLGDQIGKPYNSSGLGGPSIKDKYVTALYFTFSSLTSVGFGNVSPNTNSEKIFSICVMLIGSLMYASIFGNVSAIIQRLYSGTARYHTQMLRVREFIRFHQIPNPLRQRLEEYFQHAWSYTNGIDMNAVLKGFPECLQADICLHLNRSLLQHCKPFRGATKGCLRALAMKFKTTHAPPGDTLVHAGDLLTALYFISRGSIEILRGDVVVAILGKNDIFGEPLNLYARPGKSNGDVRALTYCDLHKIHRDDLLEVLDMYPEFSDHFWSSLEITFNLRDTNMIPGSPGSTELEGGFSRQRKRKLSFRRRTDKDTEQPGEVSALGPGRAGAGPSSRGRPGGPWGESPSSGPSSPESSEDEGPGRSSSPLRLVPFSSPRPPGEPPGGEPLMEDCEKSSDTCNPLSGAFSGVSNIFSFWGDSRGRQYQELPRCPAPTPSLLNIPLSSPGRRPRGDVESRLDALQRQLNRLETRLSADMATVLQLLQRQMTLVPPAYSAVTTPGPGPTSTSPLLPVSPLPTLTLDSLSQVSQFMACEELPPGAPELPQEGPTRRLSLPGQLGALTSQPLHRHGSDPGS
row,SMILES,"hERG current change (%, negative = inhibition) at 1uM"
1,COc1ccc(CC2(CO)CCN(Cc3cnc(-c4ccccc4C)nc3)CC2)cc1,9.46%
2,COc1ccc(C(=O)NNC2=NC(C)(C)Cc3cc(C)c(C)cc32)cc1,22.9%
3,CCOC(=O)CSc1cc(C)nc2ccc(OC)cc12,7.94%
4,O=C1Nc2ccccc2N(O)N1c1ccc(S(=O)(=O)Nc2ccccn2)cc1,11.1%
5,Cc1cc(NC(=O)CSc2ncnc3sccc23)no1,10.1%
6,COC(C/C=C/[C@@H](O)[C@@H](C)OCc1ccccc1)OC,11.4%
7,CCC/C=C(\CCC)C(NP(=O)(c1ccccc1)c1ccccc1)c1ccccc1 (stereo not drawn),13.5%
8,CC(=O)OCC[N+](C)(C)C.[Cl-],20.1%
9,COC(=O)C1=C(CSc2nc3c(cc2C#N)CN(C)CC3)OC(N)=C(C#N)C1c1ccc(F)cc1 (stereo not drawn),-2.64%
10,Cc1cccc2cc(C#N)c(NCCNS(=O)(=O)c3ccc4c(c3)OCCO4)nc12,12%
11,Cc1cc(O)cc(O)c1C=NCc1ccco1,6.59%
12,COc1ccc(C)cc1NC(=O)CN1C(=O)COc2ccc(S(=O)(=O)N3CCOCC3)cc21,12%
13,N#C/C(=C/c1ccc(Br)s1)C(=O)NCCc1c[nH]c2ccccc12,2.08%
14,CCn1cc(CN2CCC(n3nccc3NC(=O)CCOc3ccccc3)CC2)cn1,-13.1%
15,CC1(C)CC2CC(C)(CN2C(=O)CCCN2C(=O)c3ccccc3C2=O)C1 (stereo not drawn),-2.37%
16,COC(=O)c1ccc(C)c(NC(=O)CCc2ccc(OC)cc2)c1,7.12%
17,O=C(CCCCn1c(=O)[nH]c2ccccc2c1=O)NC1CCN(Cc2ccccc2)CC1,2.6%
18,Cc1sc(NC(=O)C2=COCCO2)nc1-c1ccc(Br)cc1,11.6%
19,CC(C)Sc1ncnc2c1cnn2-c1ccccc1,2.46%
20,COc1cccc(NC(=O)c2c(C)cc(C)cc2CC(C)(C)C(=O)O)c1,14.5%
21,CCCCN(C(=O)CCC(=O)Nc1cc(C)on1)C(C(=O)NC1CCCC1)c1ccccc1C (stereo not drawn),-1.28%
22,COc1ccc(C(CNC(=O)c2ccc(-c3ccccc3)cc2)N(C)C)cc1OC (stereo not drawn),13.3%
23,O=C(c1ccc2c3c(cccc13)CC2)C1CCCN(C(=O)c2cccnc2)C1 (stereo not drawn),6.86%

row,SMILES,"hERG current change (%, negative = inhibition) at 1uM"
1,CC(C)(O)CCc1c(-c2ccc(O)cc2O)oc2c3c(cc(O)c2c1=O)OC(C)(C)C=C3,14.9%
2,CC(C)(C)C1CCC(C(=O)Nc2cccnc2)CC1 (stereo not drawn),4.46%
3,Cc1onc(-c2c(Cl)cccc2Cl)c1C(N)=S,8.83%
4,NNC(=O)C1CCCN1S(=O)(=O)c1ccc(Cl)cc1 (stereo not drawn),-9.82%
5,Cn1c(SCC(=O)Nc2ccccc2)nc2c([nH]c3ccccc32)c1=O,18.3%
6,Cc1ccc(CN(Cc2ccc(C)o2)C(=S)NCC(=O)O)cc1,12.9%
7,Cc1ccc(N(CC(=O)NCc2ccc3c(c2)OCO3)S(C)(=O)=O)cc1,19.2%
8,CCCCNS(=O)(=O)c1ccc(OC)c(C)c1,13.5%
9,COc1ccccc1NC(=O)CSc1nccn1Cc1ccc(F)cc1,13.4%
10,CC1=C(C(=O)Nc2ccc(F)c(F)c2)C(c2cccs2)NC(=S)N1 (stereo not drawn),15.1%
11,Cc1cc(C)nc(NS(=O)(=O)c2ccc(N=NN(C)C)cc2)n1,9.32%
12,O=C(CSc1nc2ccc(Cl)cc2[nH]1)N1CCN(C(=O)c2ccco2)CC1,-15.7%
13,C/C(=N\N=C1\NC(=O)CC(C(=O)O)S1)c1cccs1 (stereo not drawn),8.79%
14,CNC(=O)Oc1ccc2c(c1)C(=O)c1ccccc1CO2,12.1%
15,O=C(Nc1cccnc1)c1ccc(Cl)c(S(=O)(=O)N2CCCCC2)c1,7.75%
16,Cc1cc(C)c(C(=O)Nc2ccc(Br)c(C(F)(F)F)c2)c(C)c1,10%
17,C(=N\N1CCN(c2ccccn2)CC1)/C1=C(N2CCOCC2)C(=C/c2ccccc2)/CC1,12.8%
18,Cc1ccc(CSCc2ccc(C(=O)O)o2)cc1,17.4%
19,COc1ccc(-c2cc(C(=O)N3CCOCC3)no2)cc1,11.2%
20,Cc1cccc(N2CCN(S(=O)(=O)c3ccc4c(c3)C(C)(C)C(=O)N4C)CC2C)c1 (stereo not drawn),7.22%
21,CCOC(=O)C1=C(CN2CCN(C(=O)c3ccco3)CC2)NC(=O)NC1c1ccc(F)cc1 (stereo not drawn),-2.81%
22,COc1ccccc1C(CNC(=O)C(C)(C)Oc1ccc(Cl)cc1)N1CCCC1 (stereo not drawn),-2.23%
23,COCc1cc(Sc2ccc(OC)cc2)nc(-c2ccccc2)n1,16.2%

row,SMILES,"hERG current change (%, negative = inhibition) at 1uM"
1,C=CCNC(=O)c1ccc2c3n(nc2c1)-c1ccc(C)cc1CO3,-1.03%
2,O=c1[nH]c2ccccc2c(O)c1Cc1ccccc1,4.59%
3,Cn1c(SCC(=O)Nc2nccs2)nnc1-c1ccncc1,-1.28%
4,O=C(Nc1ccccc1)c1nc[nH]c1C(=O)N1CCc2ccccc2C1,11.9%
5,Cn1c(O)c(N=NC(=O)c2cccc(S(=O)(=O)N3CCCCC3)c2)c2ccccc21,12.1%
6,CCCNC(=O)c1cccc(S(=O)(=O)N2CC3(C)CC2CC(C)(C)C3)c1 (stereo not drawn),-5.48%
7,CCN1C(=O)C(=O)N(CC(=O)c2[nH]c(C)c(C(C)=O)c2C)C1=O,8.54%
8,CC(=O)c1cccc(NC(=O)NCc2ccco2)c1,7.85%
9,Oc1ccccc1C=NCCN=Cc1ccccc1O,7.21%
10,CCOC(=O)c1ccc(N=Cc2c(O)n(-c3ccc(OC)cc3)c(=S)[nH]c2=O)cc1,19.2%
11,COc1ccccc1NC(=O)Cn1cnc2c(oc3ccccc32)c1=O,3.35%
12,O=C(CSC1=NS(=O)(=O)c2ccccc2N1)Nc1ccccc1F,12.6%
13,O=[N+]([O-])c1ccccc1S(=O)(=O)NC1CCCC1,12.5%
14,CSc1ccc(Cl)c(C(=O)OCC(=O)N(C)CCC#N)c1,5.97%
15,CCOC(=O)C(C)(CC)NC(=O)CSP(=S)(OCC)OCC (stereo not drawn),4.98%
16,COC(=O)c1sc(NC(=O)c2oc3ccccc3c2C)nc1C,9.32%
17,c1ccc(Cc2nnc(N3CCCCC3)c3ccccc23)cc1,8.53%
18,COc1ccc(NC(=S)N2CCN(C(=O)c3ccco3)CC2)cc1OC,11.1%
19,Cc1[nH]c(-c2ccc(F)cc2)cc1C(=O)N1CCN(c2ccccc2)CC1,-29%
20,O=C(CCC(=O)Nc1ccccc1Cl)NNS(=O)(=O)c1ccc(Cl)cc1,7.75%
21,N#Cc1ccc(NC(=O)CCc2ccc(S(=O)(=O)N3CCOCC3)cc2)cc1,-13.3%
22,COc1ccccc1CN1CCNC(=O)C1CC(=O)NC1Cc2ccccc2C1 (stereo not drawn),5.71%
23,O=C(/C=C/NNC(=O)c1ccc(Br)cc1)c1ccccc1,18.8%

row,SMILES,"hERG current change (%, negative = inhibition) at 1uM"
1,COc1ccccc1/C=C1\CCC(C2CCCC2)C1=O (stereo not drawn),14.6%
2,O=C(NC1CC2CCCC(C1)N2Cc1cccs1)c1ccc([N+](=O)[O-])cc1 (stereo not drawn),-78.6%
3,COc1ccc(N2CCN(CC(=O)NC(=O)NC(C)(C)C)CC2)cc1,8.73%
4,CS(=O)(=O)N1CCN(Cc2cc(=O)n3ccsc3n2)CC1,15.2%
5,O=C(NN=C(Cc1ccccc1)Cc1ccccc1)c1ccccc1O,5.77%
6,CC1(NC(=O)/C=C/c2nc3ccccc3s2)CCS(=O)(=O)C1 (stereo not drawn),5.18%
7,OC(COC(c1ccc(Cl)cc1)c1ccc(Cl)cc1)CN1CCCC1 (stereo not drawn),-75.2%
8,COc1ccccc1C(=O)NC(=O)OCCn1c(C)cnc1[N+](=O)[O-],-9.6%
9,CCOC(=O)C1=C(Cc2ccc(C)cc2)C(=O)c2ccccc2C1=O,13.4%
10,CCN1C(=O)C(CC(=O)Nc2ccc(OC)cc2)N(CCc2ccccc2)C1=S (stereo not drawn),13.3%
11,CC(C)C(c1nnnn1C1CCCCC1)N1CCN(c2ncccn2)CC1 (stereo not drawn),6.99%
12,C=CCNc1nc(NC(C)(C)CO)nc(OCC)n1,7.18%
13,CC(Sc1nnc(-c2ccncc2)n1C)C(=O)Nc1nccs1 (stereo not drawn),12.7%
14,CCOC(=O)c1c(NC(=O)C(c2ccccc2)c2ccccc2)sc2c1C1CCN2CC1.Cl,9.83%
15,COc1ccc2c(c1)N(C)C(=O)CC(c1ccccc1)=N2,1.78%
16,CSCCC(C(=O)N(C)CC(=O)Nc1cccc(F)c1)N1C(=O)c2ccccc2C1=O (stereo not drawn),4.88%
17,O=C1CCC(=O)O1,11%
18,CCN(CC)CCCNC(=O)c1ccc2c(=O)n(Cc3ccc4c(c3)OCO4)c(=S)[nH]c2c1,-2.54%
19,CC1(C)C2([N+](=O)[O-])CN3CC1([N+](=O)[O-])CN(C2)C3c1ccc(O)c(O)c1 (stereo not drawn),12.2%
20,c1cc(CSc2nnc(-c3ccc4c(c3)OCO4)o2)ccn1,10.2%
21,CC(C)c1ccc(NC(=O)c2cc(S(=O)(=O)N3CCCCC3)c[nH]2)cc1,10.3%
